{"source": "patent US20210100913A1", "about": "“ACTIVATABLE ANTI-CD166 ANTIBODIES AND METHODS OF USE THEREOF” (priority 2017, published 2021)", "molecules": {"B1": {"name": "Combination 55 (conjugate)", "heavy": "QITLKESGPTLVKPTQTLTLTCTFSGFSLSTYGMGVGWIRQPPGKALEWLANIWWSEDKHYSPSLKSRLTITKDTSKNQVVLTITNVDPVDTATYYCVQIDYGNDYAFTYWGQGTLVTVSS[… human IgG1 constant region …]", "light": "QGQSGQGLCHPAVLSAWESCSSGGGSSGGSAVGLLAPPGGLSGRSDNHGGSDIVMTQSPLSLPVTPGEPASISCRSSKSLLHSNGITYLYWYLQKPGQSPQLLIYQMSNLASGVPDRFSGSGSGTDFTLKISRVEAEDVGVYYCAQNLELPYTFGQGTKLEIKRTVAAPSVFIFPPSDEQLKSGTASVVCLLNNFYPREAKVQWKVDNALQSGNSQESVTEQDSKDSTYSLSSTLTLSKADYEKHKVYACEVTHQGLSSPVTKSFNRGEC"}}, "key": {"[1]": {"system": "head and neck squamous cell carcinoma (HNSCC)", "assay": "phase 1/2 dose-escalation study: tumor response in a subject with HNSCC", "format": "in vivo, human", "conditions": "for tumor burden: 5 mg/kg every 3 weeks, 41 mm at initial screening"}, "[2]": {"assay": "pharmacokinetics of total and intact anti-CD166 activatable antibody and metabolites in serum of human subjects", "format": "in vivo"}}}
{"molecule": "B1", "values": [{"measurement": "response since initial screening, RECIST v1.1 classification", "setting": "[1]; 5 mg/kg (AIBW) every 3 weeks", "value": "Partial Response"}, {"measurement": "change in tumor burden", "setting": "[1]; 5 mg/kg (AIBW) every 3 weeks, initial screening (41 mm) to Cycle 3 visit, 9 weeks after first administration", "value": "−31.7", "unit": "%"}, {"measurement": "tumor burden", "setting": "[1]; Cycle 3 visit (9 weeks)", "value": 28, "unit": "mm"}, {"measurement": "tumor burden", "setting": "[1]; Cycle 6 visit (18 weeks)", "value": 31.5, "unit": "mm"}, {"measurement": "development of new tumors while on study", "setting": "[1]; only target lesions at initial screening", "value": "not observed to develop any new tumors"}, {"measurement": "form in which anti-CD166 activatable antibody circulates in the serum", "setting": "[2]; 0.25 to 4.0 mg/kg (AIBW) of Combination 55", "value": "predominantly in an intact form"}, {"measurement": "ratio of intact to total anti-CD166 activatable antibody for Dose 1 AUC0-tau and Cmax", "setting": "[2]; across doses", "value": "approximately consistent"}, {"measurement": "dose trend of Cmin accumulation ratio for intact anti-CD166 activatable antibody", "setting": "[2]; multiple dosing", "value": "did not trend with dose"}, {"measurement": "accumulation ratio of minimum plasma concentration (Cmin) (Dose 3:Dose 1) for intact anti-CD166 activatable antibody", "setting": "[2]; multiple dosing every 21 days", "value": "≤ 1.34"}, {"measurement": "intact and total anti-CD166 activatable antibody exposure (AUC0-tau and Cmax) versus dose", "setting": "[2]; single dose", "value": "generally increased with increasing dose"}]}
